T1: UNK ZnF1-3 (human, UniProt Q9C0B0 31-174)
T1 sequence: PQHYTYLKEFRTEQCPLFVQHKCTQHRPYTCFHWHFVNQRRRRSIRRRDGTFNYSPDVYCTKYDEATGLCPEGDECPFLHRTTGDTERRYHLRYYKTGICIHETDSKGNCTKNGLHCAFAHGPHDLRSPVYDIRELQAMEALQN

B1: 12955530_12963200_418_CDS_ENSG00000085415_ENST00000262124|human|control|control (ssRNA)
RNA: GGGAGUUCUACAGUCCGACGAUCAGUAACAGAUGUUCUGCUAUCCACCAGAGUUGUCCUUUUAACCCAGUGGCUCUGUCCUCGCAGUUUAUCAUUUGAUUCUCCUACUAUUUCUUCCCAUACAGCAGCUGUUCGGUCAAAAGACAACAGAGGAUUGAGCAUCA
B2: 12044635_12044755_1381_3pUTR_ENSG00000065559_ENST00000353533|human|control|control (ssRNA)
RNA: GGGAGUUCUACAGUCCGACGAUCGUAUUACAAGGAUGCACGUUCUAGGUGACAGGAGUAUACAGACAUGAUGGAAACGAACACCAAUCUUAUUGCACAUGGUGUCUGGGCGAGCAAUAAAAACACUGUGAUACGGGAUGAAAACAACAGAGGAUUGAGCAUCA
B3: chr7:151048522:151048523:+_ENSG00000013374_ENST00000566856|hu_mus|hu_hu_hu_mus_True|8_78 (ssRNA)
RNA: GGGAGUUCUACAGUCCGACGAUCCUGUUUCUUAUUUAUUACGAUCUUGAUGUAAUUUUCUUGAAGUCCGAAAGUUUCAGCUAUUUGACACCUCAGGUCUCUACCAGUGACAUGCAAGCGGGUCUCCAACAAGUUUUUCUUAUCCAACAGAGGAUUGAGCAUCA
B4: 50251413_50251831_3075_CDS_ENSG00000165525_ENST00000546046|human|control|control (ssRNA)
RNA: GGGAGUUCUACAGUCCGACGAUCUCUUGAUAAAUCUGUGUCCUUUACGCUGCGGAAUAAGUCUUUUUCUCUUGCUGUUGCUUCUUUGGAAUGCAUGAAACUAUUCAAGGCUGUUUUUGCAGCUUUUCCCUUUUUCUGCACUCCCAACAGAGGAUUGAGCAUCA
B5: chr5:138643207:138643208:+_ENSG00000015479_ENST00000510056|hu_hu|motif|central (ssRNA)
RNA: GGGAGUUCUACAGUCCGACGAUCCAUCCUUCCAAGAGAUGCUGGCAUACUUAAAGACUGGGUAGCAGCAGCAAGAAGGCCGGUUCCUGCCGCAGACAGGUCACGCCCAUGACCCUGUGAGUCCCUACUGAGAGAUGACUGCUGCAACAGAGGAUUGAGCAUCA
B6: chr10:33221514:33221515:-_ENSG00000150093_ENST00000302278|perfect_dup|motif|central (ssRNA)
RNA: GGGAGUUCUACAGUCCGACGAUCAUUUGGCCCUGCUUGUAUACAUUCUCCGCAAGAUUUGGCAUUUGCUUUUAAACAUCGGUUUUUAUCUGUUUGGCCAAAUACAGAACAAAUCAAACUGAUCAAUCCAAUCCAGGAAACCAGCAACAGAGGAUUGAGCAUCA
B7: chr7:127792870:127792871:+_ENSMUSG00000030884_ENSMUST00000033176|mus_hu|FALSE|FALSE (ssRNA)
RNA: GGGAGUUCUACAGUCCGACGAUCUGUGAAAUGGUUCUGAACGAAGUAAUGUAACUCCUCUGAUGUCACUUUUCCAAUCCUAUAGUCAGGACAAUACAAGGGAUUAGCCAAGGCAUUCCGGUAAGCUGCUGCAUGCAAAUUUUCCAACAGAGGAUUGAGCAUCA
B8: chr15:81756291:81756292:-_ENSMUSG00000022476_ENSMUST00000023113|mus_hu|FALSE|FALSE (ssRNA)
RNA: GGGAGUUCUACAGUCCGACGAUCUCAGCUCCUCGGCAAUGGAGUCGUUGAGCUUCCUCUCAAACUGCCAAGGGGGGAUCCGGACGGUGUCCACCAUUUCCACCAGGACGAACAUCCCGGCCUGCGCUGGGGGCUCUGGGAACACAACAGAGGAUUGAGCAUCA
B9: 44150526_44150646_1865_CDS_ENSG00000106624_ENST00000223357|human|control|control (ssRNA)
RNA: GGGAGUUCUACAGUCCGACGAUCGCACCCCAGCACCUCCAGGCGCAUGCACAGGCUGCCAUUCCAGGUGAGUGGGUAGAUGCGGAUGAAACGAGCCACCACCGGCUCUGGGAGCUCACUCAGCACGGGUGUGUCCUUGUCCACCAACAGAGGAUUGAGCAUCA
B10: chr5:67447025:67447026:+_ENSMUSG00000037736_ENSMUST00000038188|mus_mus|motif|central (ssRNA)
RNA: GGGAGUUCUACAGUCCGACGAUCCUGCACCUAUAAGGAACCCACAUGCAAAGAACCGUCUAGCAUGGAAAUAAAUAAUUGCGGGUCAUACUCCAUAAGACACAGAAAAAGUUAUUGCUUACAUAACAGAGAAACACCUACCUGCAACAGAGGAUUGAGCAUCA
B11: chr4:76721835:76721836:+_ENSG00000138768_ENST00000264904|hu_mus|hu_hu_hu_mus_True|8_58 (ssRNA)
RNA: GGGAGUUCUACAGUCCGACGAUCGUUUGGCUGGGGUUUCUGAGACGCUCUGGAAUAUAACUCAUGUUUGCUAAUAAUCCUAGUUUCCUCUAUGAAAUUCUCUUUGCCAAUCCUCUUCUCUAUUAGUGUUUUAGCUUUCUCUUUCAACAGAGGAUUGAGCAUCA
B12: chr2:47387792:47387793:-_ENSG00000143933_ENST00000272298|hu_hu|hu_hu_hu_mus_True|8_8 (ssRNA)
RNA: GGGAGUUCUACAGUCCGACGAUCUAAGGACAAUGACAGUAAGAUAAGGGAAGAAAACAUGGAGGAAUGAAGUCCUAAUUACUAUACAUGCAUAUUUUUUGACAGUAGGGGGGGGGAACCUUUUACAUAAGUUACAAAAACAAACAACAGAGGAUUGAGCAUCA
B13: chr3:179287964:179287965:+_ENSG00000136518_ENST00000429709|hu_hu|FALSE|FALSE (ssRNA)
RNA: GGGAGUUCUACAGUCCGACGAUCUUUUAGAGGUGAAAUGGCCUCCAUAUUCUCCCUCGGAACACGCAGAGCAUUAGUAUCUAUGUAGUAGGUGGGACCGCCUUGUUUGCCUUUAUCGCCAUCUAUUUCCAUUAAUGUGCUUCCCAACAGAGGAUUGAGCAUCA
B14: chr14:72190480:72190481:+_ENSG00000197555_ENST00000381232|hu_mus|FALSE|FALSE (ssRNA)
RNA: GGGAGUUCUACAGUCCGACGAUCAAAUCCCACGGAGUUAAUGGUUCCUUCUGGCUUUUUCCAUCCAAUCAGAUAUUUGCUAGUGGCGCCCUGGCGAGGGUAGAAAGUCCUAGGUCCAGAGGAGGAUGAGGAAGAAGAGGAAAACAACAGAGGAUUGAGCAUCA
B15: 106595634_106595754_4042_CDS_ENSMUSG00000040661_ENSMUST00000046502|mouse|control|control (ssRNA)
RNA: GGGAGUUCUACAGUCCGACGAUCGGACCGUCGACGGACUGAUUCCUGGGUGACAGACGGAGUAGCCAACUUUCGCUUAUGGCCCCUUAAGUCCAGCACUGGGUGCCUGCCACCACUGGGCUGGCCAGUCACCAAGAGGGAACUCAACAGAGGAUUGAGCAUCA
B16: chr4:120733482:120733483:-_ENSMUSG00000043207_ENSMUST00000058754|mus_mus|FALSE|FALSE (ssRNA)
RNA: GGGAGUUCUACAGUCCGACGAUCGUUUUAAGAAAUGGAUUAUUAAAAUCAUUUUUGAAAUGAGAUAGUAAAUGUAUUUAAAUCUGGACUUUUAUGUACGUAAUCAUUUUUCUUAAAAAAAUUAAAAACAUCAAGAGCCGGAACCAACAGAGGAUUGAGCAUCA
B17: 144403502_144406234_989_CDS_ENSG00000184428_ENST00000329245|human|control|control (ssRNA)
RNA: GGGAGUUCUACAGUCCGACGAUCCACGGUGUCGGCCGCCUCACCGUCCUCCUUCUCAUUUCCUGCUCUCAGUGCCAGCUUAUCGAUGAAAUACAGGGCCACCGCCCGCUGUCUCGUCUUCAUUUCCCGAGACUUCCAGUCAGCCAACAGAGGAUUGAGCAUCA
B18: 193054621_193054741_2180_3pUTR_ENSG00000116747_ENST00000432079|human|control|control (ssRNA)
RNA: GGGAGUUCUACAGUCCGACGAUCGUGAAUGAGGGGGAGUUAAGCGCUUGAAACAUUUUAUAUUAUUUACACUUAAGAGUAUGAAAAACAGUGUGAGACUACAUCUGGCUAUGUUAUUAUAAUUCAGAGGAAAUCAUUAUCAAGCAACAGAGGAUUGAGCAUCA
B19: chr4:11413230:11413231:+_ENSMUSG00000040720_ENSMUST00000059914|mus_mus|motif|central (ssRNA)
RNA: GGGAGUUCUACAGUCCGACGAUCAAACGAACCACAUCUAUAUGAGAACUUUGCUCAGCGCUCGGAUGUUUAAAAGUAUCGGAAAAUAGCAGCUCCAUAGACGAGUCCACCGCCAUGUCUGCCGCGGGCGGGGGACCGGGAGAUCAACAGAGGAUUGAGCAUCA
B20: chr14:76420884:76420885:+_ENSG00000119685_ENST00000298832|hu_hu|FALSE|FALSE (ssRNA)
RNA: GGGAGUUCUACAGUCCGACGAUCCUACUGCCACUUCUGCUCGAAGGCUUUGGGGACUUUGAGGCAGCAAAAAAAAAAAUACUAUGGACCCCUUGAAGUGCUGGUGGAUGCUUCACCCUCAAUCAUGCACCCAGGAGUGGUGAACAACAGAGGAUUGAGCAUCA
B21: chr4:144460044:144460045:+_ENSG00000153147_ENST00000283131|hu_mus|hu_hu_hu_mus_False|1_98 (ssRNA)
RNA: GGGAGUUCUACAGUCCGACGAUCACGGUCCAUAGCCUGAAGAUCUACUUGCGGAUUCCAAUCUGAGUCAUAUAAAAUGACUACAUCAGCAGUUGCAAGAUUGAUGCCCAGACCACCAGCACGUGUGCUUAGCAUAAAAACAAACAACAGAGGAUUGAGCAUCA
B22: chr4:148551591:148551592:-_ENSMUSG00000063077_ENSMUST00000060537|mus_hu|mus_mus_mus_hu_False|1_28 (ssRNA)
RNA: GGGAGUUCUACAGUCCGACGAUCACCUGACAAAAUUAAAUAUCCCUGUAAAUUAGACAAUAAGCAGCAGGCAACAAAGUCUUUGCUUUGGAAUAUGUGCCAGGAAAAAUCAUGUUUUUUUUAGAUCUCAAGAGACACAACCAUCAACAGAGGAUUGAGCAUCA

The text below walks through data of article PMC12136788.

The other results are listed elsewhere or left out.

This assay concerns the target T1, UNK ZnF1-3. The assay can be described thus: nsRBNS (natural sequence RNA bind-n-seq); RBNS binding buffer (assumed for nsRBNS): 25 mM Tris pH 7.5, 150 mM KCl, 3 mM MgCl2, 0.01% Triton X-100, 500 ug/ml BSA, 20 U/ml SUPERase-In, 4 C; UNK is unkempt and MSI1 is Musashi-1; names of the RNAs are library labels; protein concentration not given here; high values mean tight binding.
B1 came in with a binding signal of 0.754 enrichment R.

B2 had a binding signal of 1.55 enrichment R.

B3 returned a binding signal of 0.682 enrichment R.

On to B4, for which the binding signal came to 0.253 enrichment R.

B5 displayed a binding signal of 0.77 enrichment R.

B6 had a binding signal of 1.09 enrichment R.

As to B7, the binding signal was found to be 1.21 enrichment R.

In turn, B8 had a binding signal of 1.15 enrichment R.

B9 gave a binding signal of 1 enrichment R.

Regarding B10, the binding signal was 1.95 enrichment R.

B11 gave a binding signal of 0.481 enrichment R.

Consider B12, for which the binding signal came out at 2.37 enrichment R.

In turn, B13 came in with a binding signal of 0.791 enrichment R.

B14 yielded a binding signal of 2.19 enrichment R.

As for B15, the binding signal came to 0.48 enrichment R.

B16: the binding signal is 1.31 enrichment R.

Consider B17, for which the binding signal worked out at 1.04 enrichment R.

In the case of B18, the binding signal is 2.25 enrichment R.

In turn, B19 gave a binding signal of 0.992 enrichment R.

Molecule B20 registered a binding signal of 1.85 enrichment R.

With B21, the binding signal is 1.26 enrichment R.

B22: the binding signal is 1.11 enrichment R.
